Where “and” joins values, the source holds several entries; their conditions need not be identical. Equal values may be shown once. The list shows a part of the results. Further columns of the screen follow, without active or inactive calls.
Assays:
Test in all cases: Primary Screen for Target Class Profiling of Small Molecule Inhibitors of Methyltransferases
[1] = target: Glycine N-methyltransferase (Homo sapiens) (UniProt Q14749); details: purified enzyme, MTase-Glo SAH luminescence; measured here: GNMT inhibition; at 40 µM; stronger effect = lower value
Method in brief: (§1)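 Each enzyme was assayed with SAM and its substrate. SAH formation detected by MTase-Glo luminescence; single-point 40 uM screen[…].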

[2] = target: Guanidinoacetate N-methyltransferase (Homo sapiens) (UniProt Q14353); details: purified enzyme, MTase-Glo SAH luminescence; measured here: GAMT inhibition; at 40 µM; stronger effect = lower value
Method in brief: as §1

[3] = target: Histamine N-methyltransferase (Homo sapiens) (UniProt P50135); details: purified enzyme, MTase-Glo SAH luminescence; measured here: HNMT inhibition; at 40 µM; stronger effect = lower value
Method in brief: as §1

[4] = target: Nicotinamide N-methyltransferase (Homo sapiens) (UniProt P40261); details: purified enzyme, MTase-Glo SAH luminescence; measured here: NNMT inhibition; at 40 µM; stronger effect = lower value
Method in brief: as §1

[5] = target: Phenylethanolamine N-methyltransferase (Homo sapiens) (UniProt P11086); details: purified enzyme, MTase-Glo SAH luminescence; measured here: PNMT inhibition; at 40 µM; stronger effect = lower value
Method in brief: as §1
On the % scale 0 is the no-effect control and ±100 the full control effect.

Structure (SMILES)	activity change, negative = inhibition [1]	activity change, negative = inhibition [2]	activity change, negative = inhibition [3]	activity change, negative = inhibition [4]	activity change, negative = inhibition [5]
COC(=O)C1=CO[C@@H](O[C@@H]2O[C@H](CO)[C@@H](O)[C@H](O)[C@H]2O)[C@@H]2[C@@H](CO)[C@@H](O)C(O)[C@H]12 (stereo not given in full)	3.5%	2.32%	11.1%	-9.14%	5.9%
COc1ccc(OC)c(S(=O)(=O)N2CCCCC2c2noc(COCC3CC3)n2)c1 (stereo not given)	4.8%	0%	4.26%	-3.55%	1.2%
O=C(Cn1c(=O)oc2cc(S(=O)(=O)N3CCCCC3)ccc21)N1CCCCC1	-2.92%	3.01%	-2.95%	10.4%	-4.63%
Cc1noc2c(NC3CCC(O)CC3)cc(-c3cccnc3)nc12 (stereo not given)	-7.91%	-7.41%	-8.56%	-13.3%	-3.12%
COC(=O)c1ccc(COCC2=CC(C)(C)Oc3ccc(OC)cc32)cc1	-5.59%	-6.97%	-0.75%	-15.9%	-5.28%
O=c1cc(N2CCOCC2)oc2c(-c3ccccc3)cccc12	-25.1% and 7.08%	2.02%	-10% and 8.95%	-15.7% and -19.9%	0.033% and -5.66%
O=C(c1cccs1)N1Cc2[nH]cnc2C[C@H]1c1nc(-c2ccc3ccccc3c2)no1	-13.4%	-7.78%	-8.3%	-12.4%	-32.6%
O=C(CC1CCCCC1)N1CC(n2cc(COCC3CC3)nn2)C1	-2.51%	-3.94%	-0.269%	-4.42%	-1.4%
OC[C@H]1O[C@@H](Oc2ccc(O)c3cccc(O)c23)[C@H](O)[C@@H](O)[C@@H]1O	0%	-33.7%	-9.49%	-34.8%	-50.2%
CN1CCCN(C(=O)c2ccccc2F)c2ccccc21	-4.68%	-4.82%	-6.73%	-9.3%	-8.21%
CCOc1ccc(CCNS(=O)(=O)c2ccc3oc(=O)c4ncn(C)c4c3c2)cc1OCC	-2.52%	-1.52%	-3.06%	4.9%	-6.76%
CN1C(=O)C(c2ccccc2)CC12CCN(C(=O)c1ccc(F)cc1)CC2 (stereo not given)	-4.32%	-3.68%	-0.368%	-9.79%	-4.17%
Cc1cc2c(cc3n2CC(C)(C(=O)NC2CCCCCCC2)N(Cc2cccs2)C3=O)o1 (stereo not given)	-4.93%	3.4%	1.72%	-16.7%	-1.74%
CC(C)CCNC(=O)C1c2c(n(C)c3ccccc23)SCC(=O)N1Cc1ccco1 (stereo not given)	15%	0%	6.46%	6.65%	7.77%
COCCN1CC2(CCCN(C(=O)CNC(N)=O)C2)CCC1=O (stereo not given)	1.97%	0.678%	4.15%	-3.25%	3.13%
CC1(C(=O)NC2CCCCCCC2)Cn2c(cc3occc32)C(=O)N1Cc1cccnc1 (stereo not given)	-1.12%	4.87%	4.7%	2.72%	-1.04%
O=C(c1ccccn1)N1CCC(N2CCCC2=O)CC1	-5.18%	-11.7%	-3.82%	-8.27%	-4.09%
Cc1ccc(Cn2c(=O)c3ccccc3n3c(CCC(=O)NC(C)C)nnc23)cc1	-8.25%	5.1%	2.62%	6.2%	-9.76%
O=C(O)C1CN(CCCP(=O)(O)O)CCN1 (stereo not given)	4.32%	-7.76%	5.73%	-10.1%	-5.23%
CC(C)CCn1c(=O)c2ccc(C(=O)NC3CCCCC3)cc2n2c(=O)[nH]nc12	-5.62%	2.21%	-2.82%	-3.72%	-9.42%

Structure (SMILES)	activity change, negative = inhibition [1]	activity change, negative = inhibition [2]	activity change, negative = inhibition [3]	activity change, negative = inhibition [4]	activity change, negative = inhibition [5]
COCCNC(=O)CCCc1nnc2n3nc(-c4ccccc4)nc3c3ccccc3n12	0.664%	4.47%	5.76%	8.81%	1.38%
CC(C)c1ccc(N2C[C@]34C=C[C@H](O3)C(C(=O)N3CCSCC3)C4C2=O)cc1 (stereo not given in full)	-3.09%	-1.49%	1.88%	-2.2%	-1.52%
C=CCN1CC2(CCC1=O)CCN(C(=O)C1CC=CCC1)CC2 (stereo not given)	-2.07%	-1.74%	0%	-8.34%	-0.219%
O=C(Nc1ccccc1F)N1Cc2c(sc3c2CCCC3)-n2cccc2C1c1ccc(F)cc1 (stereo not given)	3.56%	0%	4.62%	-1.26%	6.79%
Cc1ccc(CNC(=O)Cn2nc3n(CCCOC(C)C)c(=O)c4ccccc4n3c2=O)cc1	-1.35%	3.52%	0.452%	1.56%	1.65%
CCCn1c(=O)c2ccc(C(=O)NC(C)C)cc2n2c(=O)n(CC(=O)Nc3cccc(F)c3)nc12	-2.56%	2.01%	-3.8%	-6.82%	-1.93%
C[S+](=O)([O-])N1CC2(Cc3ccccc31)CN(C(=O)c1ccc(F)cc1)C2	-7.64%	-1.89%	0.955%	-5.06%	-0.659%
Cc1nccnc1CN1CCC2(CC1)CCN(Cc1ncc[nH]1)CC2CO (stereo not given)	-1.25%	0.912%	-0.642%	-1.37%	1.13%
CSCCC(NS(=O)(=O)c1ccc2c(c1)oc(=O)n2C)C(=O)N1CCC(Cc2ccccc2)CC1 (stereo not given)	4.49%	0%	8.16%	-5.81%	-1.46%
CC1=C2CC3OC3(C)CCC3OC3(C)CC2OC1=O (stereo not given)	5.79%	2.56%	6.72%	-8.31%	-1.44%
O=C(c1ccccc1)N1CCC(c2nnc3n2C(C(=O)N2CCN(c4ncccn4)CC2)CC3)CC1 (stereo not given)	-1.82%	-1.72%	-0.348%	-5.6%	-2.39%
COc1ccc(CNC(=O)c2sc(=S)n3c2[nH]c(=O)c2cc4c(cc23)OCO4)cc1	-6.49%	0%	3.61%	-2.63%	-3.45%
O=C(Cc1ccccc1)OC[C@H]1O[C@H](O[C@H]2O[C@H](CO)[C@@H](O)[C@H](O)[C@H]2O)[C@H](O)[C@@H](O)[C@@H]1O	1.19%	2.38%	10.8%	-10.5%	-6.08%
O=C(N1CCC(Cc2nc(C3CC3)n[nH]2)CC1)C1(c2ccccc2)CC1	-2.27%	0.134%	1.19%	-4.3%	-2.57%
CC(C)C1c2cccn2CCN1C(=O)Nc1ccc(F)cc1 (stereo not given)	15.5%	0.408%	7.96%	9.29%	7.78%
CCCCN1C(=O)c2cc(C(=O)Nc3ccc(OC)cc3OC)nn2CC1(C)C(=O)NC1CCCC1 (stereo not given)	6.43%	0.014%	2.9%	6.07%	9.52%
CN(CC(=O)NC1CCCCC1)S(=O)(=O)c1ccc2[nH]c3c(c2c1)CCCC3	2.52%	0.8%	1.65%	-5.26%	1.78%
COc1cc2ncnc(Nc3ccc(F)c(Cl)c3)c2cc1O	-27.6%	-6.95%	-42.8%	-21.1%	-24.7%
CCCC1c2ccc(C)n2CCN1C(=O)Nc1ccc(C)c(F)c1 (stereo not given)	-5.62%	4.93%	-7.66%	0.121%	-4%
CCc1cc2c(cc3n2CC(C)(C(=O)NC2CCCCC2)N(c2ccc(C(C)C)cc2)C3=O)s1 (stereo not given)	5.5%	0.143%	9.56%	16.1%	3.81%

Structure (SMILES)	activity change, negative = inhibition [1]	activity change, negative = inhibition [2]	activity change, negative = inhibition [3]	activity change, negative = inhibition [4]	activity change, negative = inhibition [5]
CC(=O)Nc1ccc(NC(=O)C2c3ccccc3C(=O)N(C3CCCC3)C23CCCC3)cc1 (stereo not given)	-5.76%	-10.5%	-7.34%	-15.7%	-23.3%
COc1ccccc1CNC(=O)C1(C)Cn2c(cc3ccccc32)C(=O)N1Cc1ccc2c(c1)OCO2 (stereo not given)	-2.52%	-1.22%	1.74%	-4.53%	-2.15%
C[C@@H]1O[C@@H](O[C@H]2[C@H](O[C@H]3CC[C@@]4(C)C(CC[C@]5(C)C4C=C[C@]46OC[C@@]7(CCC(C)(C)C[C@H]74)[C@@H](O)C[C@]65C)[C@]3(C)CO)O[C@H](CO)[C@@H](O)[C@@H]2O[C@@H]2O[C@H](CO)[C@@H](O[C@@H]3O[C@@H](C)[C@H](O)[C@@H](O)[C@H]3O)[C@H](O)[C@H]2O)[C@H](O)[C@H](O)[C@H]1O (stereo not given in full)	-3.35%	-5.96%	4.21%	-11.9%	-0.478%
CC(CN1C(=O)c2ccc(-c3ccccc3)n2CC1(C)C(=O)NC1CCCC1)c1ccccc1 (stereo not given)	6.71%	0%	7.54%	-0.269%	6.88%
CC(C)c1ccc(NC(=O)Cn2c(=O)oc3cc(S(=O)(=O)N4CCCC4)ccc32)cc1	-5.3%	3.72%	6.95%	9.8%	-9.37%
CN1C(=O)c2cc(C(=O)NCCCN3CCOCC3)nn2CC1(C)C(=O)NCc1ccc(F)cc1 (stereo not given)	10.7%	0%	6.82%	13%	5.71%
CCOc1ccccc1CN1C(=O)c2c(C(=O)OC)ncn2CC1(C)C(=O)NC1CCCCC1 (stereo not given)	6.75%	0%	7.02%	4.49%	5.24%
Cc1ccc(C(=O)CSc2nnc3n(CC(C)C)c(=O)c4ccc(C(=O)NC(C)C)cc4n23)cc1	3.89%	0%	2.32%	4.33%	2.8%
CCOC(=O)c1cc2n(n1)CC(C)(C(=O)NC1CCCC1)N(c1ccc(OCC)cc1)C2=O (stereo not given)	6.23%	1.5%	4.01%	9.8%	5.11%
COc1ccc(NC(=O)CCc2nnc3n(CC(C)C)c(=O)c4ccccc4n23)cc1OC	7.72%	0%	5.93%	5.06%	-3.21%
CCN1C(=O)C2(CCN(S(=O)(=O)c3cc(C)ccc3C)CC2)c2ccccc21	-3%	1.61%	-0.521%	0.551%	-5.12%
CN(C)c1cccc(-c2cnc(NC(=O)c3ccncc3)c3c2CCO3)c1	-9.82%	-7.46%	-7.62%	-14.8%	-4.4%
CCCn1c(=O)c2cc(F)ccc2n2c(SCc3ccccc3F)nnc12	-16.3%	3.69%	6.63%	-14.3%	6.88%
CCOc1ccccc1C(=O)NC1CC(=O)N(CCc2ccc(F)cc2)C1 (stereo not given)	-3.73%	-14.9%	-3.23%	-20.2%	-3.65%
CCN(CC)Cc1nnc2cc(-c3nc(-c4ccccc4)no3)ccn12	-4.78%	0.459%	1.31%	2.86%	9.54%
Cc1ccc(Cn2c(=O)c3ccccc3n3c(-c4ccccc4)nnc23)cc1	-7.43%	3.65%	6.74%	1.74%	-0.344%
CCC(C)NC(=O)c1ccc2c(=O)n(C(C)C)c3nn(Cc4cc(C)ccc4C)c(=O)n3c2c1 (stereo not given)	-0.403%	4.93%	-0.539%	-1.69%	0.551%
O=C(Cn1cncn1)N1CCc2onc(C(c3ccccc3)c3ccccc3)c2C1	-4.25%	-5.53%	-1.68%	-14.5%	-3.12%
Cc1ccc(-c2cn(CC3CCCN(c4cc(C)nc(N)n4)C3)nn2)cc1 (stereo not given)	-8.38%	-0.23%	-45.5%	-2.41%	-5.18%
